Measurements reported in the supplement of paper PMC11417369.
The list shows a part of the results.

Tested on: PfHDP1 homeodomain (GST-tagged)
Experiment: gcPBM binding intensity (ln(normalized median fluorescence intensity)); higher = stronger DNA binding
In short: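 GST-tagged P. falciparum DNA-binding domains produced in E. coli were incubated for 1 h on an Agilent 4 × 180k array of primer-extended double-stranded 36-bp intergenic genomic probes with negative controls. Binding intensity is the highest Masliner-normalised natural-log median intensity across replicate spots of either probe orientation, with bound protein detected by Alexa488 anti-GST antibody at 488 nm.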

Point of comparison: “ATATATATTTTTATAACACACAATGAAGTACATTAC [CACACA_site8270]”, “gcPBM binding intensity (ln)” value 7.07. Against it:
- CATTATTATTAACATACACACGTGTTATATACCCCC [CACACA_site9365] — higher, 8.1
- CATATAAATATTTGTGCACACAATTATTAATAATTA [CACACA_site3884] — higher, 11.2
- AAAAAGTTATTATGAACACACATTTATTATAGTCAT [CACACA_site6838] — lower, 6.26
- ATTTGAAATTGGTAGACACACAATAAAATATCAAAA [CACACA_site447] — lower, 5.95
- TTAAACTTGAGACACACACACACACGGATATAAAAA [CACACA_site6495] — lower, 7
- ATATATATCGGACACACACACATGTTTTAAAACTAT [CACACA_site4218] — higher, 7.13
- CTTTTATTCAAAAGATGTACTTAAATATATATCTAA [XGTACX_site4326] — lower, 5.86
- ATGTGTATAATTAAATGTACATATATATATATATAT [XGTACX_site829] — higher, 9.34
- TGCAGTCTGGAGAAACGTACACAGTATCTGGTAACA [XGTACX_site2014] — lower, 6.1
- GGCTTTTTTTAATATGCACACATATATTTTATATAT [CACACA_site8647] — higher, 10.2
- TATAATAATCTAATCTGTAGTTTTTTTTTTTTTTTT [CACACA_negctrl_site1206] — lower, 6.36
- AAAAAAAAACAGAAAACACACAAATTATCTTATAAT [CACACA_site4326] — lower, 6.53
- ATACTCACGTGACACACACACAATATAAATAAATAT [CACACA_site7862] — lower, 6.86
- AATAAATAAATAAATAAATATATATATATATATATA [GTGCAC_negctrl_site224] — higher, 9.34
- TTATATTAAAAAAGATGTACGTTTAGGAAAAATATA [XGTACX_site7456] — lower, 6.53
- TTTCTAAATAATTATAATGAATCTGCAAACAAGCAT [XGTACX_negctrl_site391] — lower, 6.15
- TTAGATTTAAATATCATACACACTTTATATATAATA [CACACA_site959] — lower, 6.7
- ATAAAAATAAACATACGTACTTACACGAATATACAT [XGTACX_site5989] — lower, 6.55
- CTTGAAAAAATAAAAACACACAATGTGTTTTTGAAT [CACACA_site3283] — lower, 6.16
- ATATTACTATATTATTGTACGTTAAAAAAAAAAAAT [XGTACX_site8734] — lower, 6.52
- TTTTTTTTTTTTAATACACACATATTTATATTTATT [CACACA_site7802] — lower, 6.63
- TTTTTCTTAAAAAATTGTACACATATATATATATAT [XGTACX_site542] — higher, 9.21
- ATTAAGTTAAACATTACACACTATGTATTATTTATG [CACACA_site973] — lower, 6.33
- CTAAGCTAAGTAAGCTGTACTTCACCTTTATACAGT [XGTACX_site3087] — lower, 6.19
- CTATTTTTATATTATTGTACGTTGTTATTATATATA [XGTACX_site1469] — lower, 6.79
- ATATAGAACACCTGTGCATGCAAGTGCTAAAAAATT [TGCATGCA_site213] — higher, 8.59
- TAATATTATTTAGAGTGTACTCATAAATCAACAAAA [XGTACX_site5269] — lower, 6.33
- TTTATATTTATATATACACACATATACATCCTATTT [CACACA_site3079] — lower, 6.61
- CATATTTACTATCACACACACGATATATATAAATAT [CACACA_site1241] — lower, 6.87
- TTTTTTTTTTTTTTCTCACACATTTAATGATAATAT [CACACA_site5513] — lower, 6.28
- TTTTTTTTTTTTTGCACACACATAATAGGTACAAAT [CACACA_site3577] — higher, 10.1
- ATATATATATATATATGTACTAACCTTTTAAAATAT [XGTACX_site6488] — higher, 9.31
- AATTGGGTAGGACATGCATGAGAAATTAATATTGCA [TGCATGCA_site356] — higher, 7.19
- ATGTCAAACATTTGCACACAAAAAAATAAAAATTAA [CACACA_site692] — higher, 10.6
- TATTACATTGTTGAATGTACTCATTTAAAATTTATA [XGTACX_site7987] — lower, 6.17
- AATCAAAGCCCACATACACACACATATATATATATA [CACACA_site7987] — higher, 9.28
- TTATACTAAATGAACACACACACATCTATATTTATA [CACACA_site6199] — lower, 6.68
- AAATTAGACTATAATACACACATAAAAAAAAAATCA [CACACA_site7672] — lower, 6.51
- AATTAAAATAATAATACACACATCATAGAAAAAGAC [CACACA_site292] — higher, 7.51
- AGGTTTTCTTAAATAGTGCATTATAACAAAAATAAA — higher, 9.58
- TCACGTATGTATATTACACACATACATATTATTCAC [CACACA_site4276] — lower, 6.75
- ATATTATATATATATAAACACACAAATATTTTTATA [CACACA_site8486] — lower, 6.56
- ATAAAATGAACCTTTTGTACATATATATATATATAT [XGTACX_site4610] — higher, 9.29
- AACATCTCATATCGTACTACACTCATATATATATAT [XGTACX_site170] — higher, 9.21
- CATAAATAAGCTTTAGTGCATTATATTTAAATTTTT — higher, 9.97
- TTTAATAATAATAAAAGTACACAAATATAAAGGAAA [XGTACX_site5203] — lower, 6.86
- TGAATATTTCTATATACACACATATATATATATATA [CACACA_site3451] — higher, 9.26
- CTAAAATACAGACACACACACACATATATATATATA [CACACA_site4150] — higher, 9.26
- GGGTTTTTAAAATGTAGTACATATGTAAACATCAAA [XGTACX_site1262] — lower, 6.7
- TTAAAATAGGGCGAAGAAATTTTCTGTAAACATTTG [CACACA_negctrl_site1010] — lower, 6.33
- ATATGCTTATATTATATATATAAGTCTATATATTTT [XGTACX_negctrl_site349] — lower, 6.17
- ATATATATAAAATGTTGTACATATATATAAATAATA [XGTACX_site1661] — lower, 6.15
- ATATAATATGGTATTACACACTGTTAAAAGTATGGC [CACACA_site5190] — lower, 6.54
- TCTGTATATTTCGCGCGTACGAACAAATTGATAATT [XGTACX_site7965] — lower, 6.78
- CACATACAGACATACACACATACACATATACGCATA [CACACA_site1745] — higher, 7.18
- TAAAGTAAAGACATACTTATTTTCCATCCACTTCTT [CACACA_negctrl_site1288] — lower, 6.63
- AAACAATAAAAGATTACACACATATATAGCATCTAT [CACACA_site5012] — lower, 6.44
- TTTCATTTGTCGTTATGTACTTATTAAATATTATTA [XGTACX_site7709] — lower, 6.92
- ATATATATATATATATGTACATATTTTATTTAATTT [XGTACX_site1807] — higher, 9.2
- TTTTTTTTTTTTTTTTGTACGAATAAACAAGTTATT [XGTACX_site5473] — lower, 6.21
- TGTATTAAAAATTTGGTGCAACTTTTACATAATAAT — higher, 10.8
- AAAAAAAAAAAATACACACACACATATTTATTTATA [CACACA_site6483] — lower, 6.86
- AAAAAAAAAAATAAATGTACAAAATAATGGGGAACA [XGTACX_site8723] — lower, 7.03
- GTGAATGATTTAAGTACACACCGGTATTTATTCAAA [CACACA_site4950] — lower, 6.32
- AAAAGAATTAATTTATGTACTAATTTCAAGAAATAA [XGTACX_site3241] — lower, 5.78
- CTCGATCAAGTGTATGCATGTACCAGTGAACAAAAA [TGCATGCA_site635] — lower, 6.98
- TCCTTACACACACTTTTTTTTTTTTTTTTTTCTACA [GTGCAC_negctrl_site263] — lower, 6.89
- CTTTTTCCTTTATAAAGTACTTAAAATATTTAGATA [XGTACX_site4259] — lower, 6.48
- ATATATTATCAACTTACACACAGAAAACTATAATAA [CACACA_site6275] — lower, 6.75
- ATATATTTAAAAAAATGTACAAATCATAAATGCAAG [XGTACX_site4230] — lower, 6.75
- AGAAATTAAATGTAAGCACACATAAATTATACACAT [CACACA_site9098] — lower, 6.97
- AAAAAATTATACCAGTGTACTTTTTTGGTTTTTCTT [XGTACX_site2601] — lower, 5.9
- TATAATGTTGATGATAGTACGTATGAGTTCAAAAAA [XGTACX_site3651] — lower, 6.53
- CATAAGATTTTTACATGTACATATTTATAATATATT [XGTACX_site6578] — lower, 6.9
- TTCTTTTTTTTTTTTTCATGTATATTAAACTTTTCA [TGCATGCA_negctrl_site592] — lower, 6.46
- GATATATAAATTGACACACACATATATACCTATATA [CACACA_site6689] — lower, 6.56
- AATATTTATATTAACTGTACAGAAAATATCTTTGCT [XGTACX_site8130] — lower, 6.23
- TATGCCATGGCATAATGTACATAAGTGACCTCATAA [XGTACX_site1294] — lower, 6.52
- AATATAAAAATGTTTACACACACACCGAAATATATT [CACACA_site8800] — lower, 6.99
- TATATATTTATTTATTGTACACTCTTTAAGAATACA [XGTACX_site2569] — lower, 6.49
- TATATATATATATATATATATATATATGTGTATGTA [TGCATGCA_negctrl_site255] — higher, 9.31
- GATTCGATCTATATATGTACACATAAATATTTTTTG [XGTACX_site7015] — lower, 6.74
- ATACACAAGAATATGTTGCACTTTTATATTCGTATG — higher, 7.3
- AATAAAATTGACCATTCACACAAGAAAAATTAATCA [CACACA_site5636] — lower, 6.13
- TATATATATAAAAGTTGTACAGTGTTTTATATAGTT [XGTACX_site7085] — higher, 7.33
- AATTAGCTATTTAAAAATATATAAAATTTATATATA [CACACA_negctrl_site390] — lower, 6.33
- ATCATATTGAATATTTAACACACATTTCGCTTAATT [CACACA_site8652] — lower, 6.74
- GAAATAGAGAGACACACACACATATATTTATGTATT [CACACA_site7794] — lower, 6.24
